Laboratory results taken from publication PMC4336329 (PLoS ONE, 2015).
Hit rate of the full screen: of about 310,000 compounds, about 14,000 (4.5%) showed an effect of 50% or more. Effects have a minus sign here. Some of the results follow.

These molecules were tested against human ether-à-go-go-related gene (hERG) potassium channel (human, UniProt Q12809) (assay: primary screen, population patch clamp on CHO cells stably expressing hERG).
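Further: peak tail current of the secondary pulse compared with the same well before compound.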

Sequence of human ether-à-go-go-related gene (hERG) potassium channel (Q12809 whole entry, looked up): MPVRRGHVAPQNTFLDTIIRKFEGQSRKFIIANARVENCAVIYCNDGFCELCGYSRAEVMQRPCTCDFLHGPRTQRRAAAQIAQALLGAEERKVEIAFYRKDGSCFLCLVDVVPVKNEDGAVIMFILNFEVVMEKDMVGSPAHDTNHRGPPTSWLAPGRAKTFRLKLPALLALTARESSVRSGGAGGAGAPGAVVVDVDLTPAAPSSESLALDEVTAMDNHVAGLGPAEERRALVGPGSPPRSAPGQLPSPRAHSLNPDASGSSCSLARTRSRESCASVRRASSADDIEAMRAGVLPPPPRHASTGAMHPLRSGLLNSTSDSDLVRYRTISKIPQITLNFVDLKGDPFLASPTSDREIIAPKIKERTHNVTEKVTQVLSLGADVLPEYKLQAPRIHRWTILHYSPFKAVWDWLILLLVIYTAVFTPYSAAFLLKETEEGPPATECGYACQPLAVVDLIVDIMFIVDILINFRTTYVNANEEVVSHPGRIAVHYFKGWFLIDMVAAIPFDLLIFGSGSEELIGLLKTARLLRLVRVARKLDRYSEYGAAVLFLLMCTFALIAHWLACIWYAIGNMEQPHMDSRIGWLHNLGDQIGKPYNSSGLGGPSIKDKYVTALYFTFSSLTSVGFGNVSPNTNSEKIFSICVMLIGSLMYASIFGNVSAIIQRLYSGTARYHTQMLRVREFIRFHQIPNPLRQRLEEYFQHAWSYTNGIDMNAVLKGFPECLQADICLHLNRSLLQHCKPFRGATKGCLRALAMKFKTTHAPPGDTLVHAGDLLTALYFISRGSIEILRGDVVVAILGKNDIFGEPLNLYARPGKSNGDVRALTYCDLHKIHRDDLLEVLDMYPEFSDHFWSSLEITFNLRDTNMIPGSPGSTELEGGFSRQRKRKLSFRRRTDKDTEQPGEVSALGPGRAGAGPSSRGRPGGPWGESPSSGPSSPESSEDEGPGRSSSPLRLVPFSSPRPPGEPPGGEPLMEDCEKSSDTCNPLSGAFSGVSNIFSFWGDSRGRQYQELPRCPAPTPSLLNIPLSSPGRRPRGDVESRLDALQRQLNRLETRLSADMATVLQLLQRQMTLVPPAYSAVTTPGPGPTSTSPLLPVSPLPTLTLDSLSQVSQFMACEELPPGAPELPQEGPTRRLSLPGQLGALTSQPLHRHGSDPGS

| SMILES | hERG current change (%, negative = inhibition) at 10uM [%] |
| --- | --- |
| Cc1ccc(OCC(=O)NC2=NCCS2)cc1 | 21.5 |
| O=C(CCl)Nc1ccc(-c2ccccc2)cc1 | 17.4 |
| COc1ccc(Oc2c(C)nc(SCC(=O)c3ccc(Cl)cc3)[nH]c2=O)cc1 | 15.6 |
| CCC(=NCc1cccnc1)c1c(O)n(-c2ccccc2C)c(=O)[nH]c1=O | 8.87 |
| O=C(O)CC1(CC(=O)Nc2ccccc2C(=O)c2ccccc2)CCCC1 | 22.8 |
| CC(C)CCP(=O)(O)c1ccccc1 | -0.142 |
| COc1ccc(CNc2ncnc(N)n2)cc1.Cl | 3.14 |
| CCOC(=O)c1ccc(NC(=O)NC(C)C2CCCO2)cc1 (centres unmarked) | -9.61 |
| Cc1c(NC(=O)c2cc(-n3cnnc3)ccc2Cl)cccc1-c1nc2ccccc2s1 | -21.8 |
| CC(C)(C)c1ccc(C(=O)Cn2nc(C(=O)O)c3ccccc3c2=O)cc1 | -6.48 |
| O=C(CSc1nnc(C2COc3ccccc3O2)o1)N1CCCCC1 (centres unmarked) | -6.59 |
| Cc1cc(NC(=O)CCCC(=O)N(CC(=O)NCCc2ccccc2)Cc2ccc(F)cc2)no1 | -39.8 |
| Cn1nnnc1SCc1nc2scc(-c3ccc(Cl)cc3)c2c(=O)[nH]1 | -11.1 |
| O=C(Oc1ccccc1F)C1CCN(C(=O)c2ccc(F)cc2)CC1 | -7.7 |
| O=C([O-])CCSc1ccc2ccccc2n1.[Na+] | 12.6 |
| Cl.NCCCCCC(=O)Nc1ccncc1 | 15.3 |
| O=S(=O)(c1ccc(F)c(F)c1)N1CCN(CCc2ccccc2)CC1 | -2.71 |
| COc1cccc(OCCOCCN(C)CCO)c1 | 8.06 |
| COc1ccc(CNC(=O)C/C(C)=N/NC(=O)COc2cccc(C)c2)cc1 | -18.7 |
| CCOC(=O)C1=C(N)OC2=C(C(=O)CC(C)(C)C2)C1c1ccccc1OC (centres unmarked) | 14.7 |
| COc1cc(/C=N/NC(=O)C23CC4CC(CC(C4)C2)C3)cc(Br)c1O | -5.77 |
| Cc1cc(NS(=O)(=O)c2ccc(NC(=O)Cc3ccccc3)cc2)nc(C)n1 | 10.5 |

| SMILES | hERG current change (%, negative = inhibition) at 10uM [%] |
| --- | --- |
| COc1ccc(C(=O)N(Cc2cccs2)C2CCS(=O)(=O)C2)cc1 (centres unmarked) | 14.2 |
| Cc1ccccc1C(=O)NC1CCN(C(=O)Nc2ccc(F)cc2)CC1 | -13.8 |
| CCC(=O)NC(=S)Nc1cccc(NC(=O)c2ccco2)c1 | 11.3 |
| O=C(Nc1cccc(-c2nnc(-c3ccco3)o2)c1)C(c1ccccc1)c1ccccc1 | 16.9 |
| CS(=O)(=O)c1cccc(C(=O)Nc2ccc3c(c2)OCCCO3)c1 | 11.6 |
| Cc1cccc(NC(=O)c2cccc(N3C(=O)C4CCC(C)CC4C3=O)c2)c1C (centres unmarked) | -1.92 |
| Cc1cc(C)cc(C(=O)NC(CC(N)=O)c2ccc(N3CCCCCC3)c([N+](=O)[O-])c2)c1 (centres unmarked) | 13.5 |
| C/C=C(\C)C(=O)NCCN1C2=NC[C@H](C(C)C)N2C[C@H]1Cc1ccc(O)cc1 | 23.1 |
| Cc1cc(N2CCCC2)n2nc(C)nc2n1 | -11.8 |
| O=C(NC1CCCCCCC1)c1cc(F)c(F)cc1Cl | -16.5 |
| Cc1cc(C)cc(N(C(=O)CNS(=O)(=O)c2ccccc2)C(C(=O)NCc2ccccc2)c2ccc(C)o2)c1 (centres unmarked) | 3.98 |
| O=C(COC(=O)c1ccccc1NC(=O)c1ccco1)NCC1CCCCC1 | -11.9 |
| O=C(OCC(=O)N1CCN(c2ccccc2)CC1)c1ccc(O)cc1O | 5.77 |
| CCC(C)Nc1cc(C)nc2ncnn12 (centres unmarked) | 53.6 |
| COc1cc(C)ccc1N(CCCN1C(=O)c2cccc3cccc(c23)C1=O)C(=O)c1cccs1 | -12.3 |
| O=C(c1cc(-c2cccnc2)nc2ccc(Br)cc12)N1CCN(c2ncccn2)CC1 | -19.6 |
| COc1ccc(-c2ccc(C(=O)C3CC3)cc2)cc1 | 14.7 |
| CCOC(=O)CC1CCCCN1C(=O)CCCn1nnnc1CN1CCOCC1 (centres unmarked) | 13.3 |
| CC(=O)Nc1ccc(NC(=O)COc2cccc3c2OC(C)(C)C3)cc1 | 9.26 |
| CCCCn1c(SCc2ccccn2)nc2c1c(=O)n(C)c(=O)n2C | -8.02 |
| Cc1sc(N2C(=O)C3C4C=CC(C4)C3C2=O)c(C#N)c1C (centres unmarked) | -5.96 |
| CN(C)C=C1C(=O)c2ccccc2C1=O | 17.3 |
